Measurements from the supplement of paper PMC5499739.
The full ranking holds about 16,000 sequences; the median of “Z-score” is about -0.37, and the highest 2% start at about 3.2. Some of the results follow.

Tested on: RBM10 RRM1-ZnF (GST-tagged construct)
Assay: RNAcompete 7-mer binding Z-score; higher = stronger binding preference
Description: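 RNAcompete: 20 pmol GST-tagged RBM10 RNA-binding constructs were incubated with a designed RNA pool of about 241,000 sequences up to 41 nt (1.5 nmol) on glutathione beads for 30 min at 4 °C and washed. Bound RNAs were identified by microarray hybridisation. Each RNA 7-mer is scored by a one-sided Z-score of its enrichment, computed over probes that contain the 7-mer within longer pool sequences.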

| Sequence | RNAcompete 7-mer binding Z-score |
| --- | --- |
| UUUCGAA | -0.678 |
| ACCACUG | -0.243 |
| UUCCCUU | -0.802 |
| GCUGGUU | 0.618 |
| ACCGUGU | -0.47 |
| UCUCCUC | -0.626 |
| UGCUGUA | -0.412 |
| CACGCAG | -0.155 |
| GCUCUGU | -0.711 |
| CCGGACC | -0.535 |
| CUUCUCU | -0.824 |
| GAUACAG | 0.862 |
| UCGAAAG | -0.0772 |
| AGGCAGA | 0.79 |
| ACCUUGG | -0.331 |
| UACACAA | -0.548 |
| AUAGGUU | 1.53 |
| GCUGUUU | -0.558 |
| UGGUGGG | 4.74 |
| AGUAAGA | 0.267 |
| CAAUGGA | 1.1 |
| AGUUUUU | -0.438 |
| GGUGGGA | 4.26 |

| Sequence | RNAcompete 7-mer binding Z-score |
| --- | --- |
| CAAGUUG | -0.181 |
| GGACGGC | 1.19 |
| AAGAGUA | 0.891 |
| CCUGGGU | 0.914 |
| GGUACAG | 1.72 |
| GAGCACG | 0.491 |
| GAUAGGG | 4.05 |
| GCCGAAC | -0.516 |
| UAUUUUU | -0.74 |
| CCUAAGG | -0.344 |
| UAAGGGC | 1.49 |
| UACUUGU | -0.535 |
| UUCGCGC | -0.714 |
| CUGCAUC | -0.811 |
| CUUGGUC | -0.746 |
| AGCCAAA | -0.467 |
| CAAACAU | -0.578 |
| CUGAUAC | -0.571 |
| AUUCGCC | -0.746 |
| CGUAGAC | -0.353 |
| CGUGAAA | -0.236 |
| AUCCCCG | -0.591 |
| CAUAUUC | -0.802 |

| Sequence | RNAcompete 7-mer binding Z-score |
| --- | --- |
| GACAGCU | -0.642 |
| UUUGGGA | 1.62 |
| CCCAAGC | -0.568 |
| AUACAUA | -0.269 |
| CUAGGUU | 0.082 |
| AUUGUUG | -0.0544 |
| GAGUACG | 0.469 |
| CUUAGUG | -0.282 |
| ACGUGGG | 2.43 |
| GGCGCUU | -0.184 |
| UCCCACA | -0.574 |
| UUCAGCU | -0.639 |
| UACGAGC | -0.383 |
| GUCGCGA | -0.178 |
| CAUAGGG | 1.51 |
| UGCGCCG | -0.256 |
| AUAAGCG | 0.144 |
| AUGCCUC | -0.753 |
| UGCCGUA | -0.665 |
| AAAAACU | -0.558 |
| CGAGCGA | 0.667 |
| ACUUAGC | -0.795 |
| UUACUGA | -0.578 |

| Sequence | RNAcompete 7-mer binding Z-score |
| --- | --- |
| AGUUCUA | -0.701 |
| UGCACAA | -0.526 |
| UCUGGCC | -0.509 |
| ACGCGUC | -0.37 |
| CUGGAGU | 0.569 |
| AAAUGCC | -0.48 |
| UAACAAG | -0.178 |
| UGUGAUA | 0.069 |
| CCGAAGG | 0.179 |
| UCAUGAU | -0.383 |
| GUGUGGG | 3.93 |
| AACCGAC | -0.724 |
| GACAAUG | 0.709 |
| GCUGUUC | -0.584 |
| CUCAGCC | -0.792 |
| GCACAUA | -0.464 |
| GCGCACG | -0.116 |
| CAUGAAU | -0.249 |
| UCGCAGA | -0.412 |
| UCCACGA | -0.662 |
| UUCACGA | -0.704 |
| UCAGCCG | -0.802 |
| CACUGUA | -0.327 |

| Sequence | RNAcompete 7-mer binding Z-score |
| --- | --- |
| CGAGGCG | 0.949 |
| GCUCGAA | -0.425 |
| UAAUACG | -0.288 |
| CCAUAUG | -0.607 |
| UGUUAUC | -0.457 |
| GGGGCGU | 2.64 |
| AGCCGGC | -0.571 |
| AACGAUG | 0.179 |
| CGUCUUU | -0.805 |
| UUUCUGU | -0.665 |
| UUUUUCA | -0.74 |
| GUUACAU | -0.357 |
| GACUCUG | -0.672 |
| GGAAGUG | 2.86 |
| AAUAUCC | -0.707 |
| CUUGUCC | -0.769 |
| ACACUCC | -0.769 |
| UCCCGCC | -0.467 |
| UUCCCGU | -0.753 |
| UUAAGGA | 1.1 |
| GUGGAUC | 1.04 |
| CACUUUG | -0.873 |
| CAAGCAU | -0.487 |

| Sequence | RNAcompete 7-mer binding Z-score |
| --- | --- |
| GGGGAAU | 3.41 |
| CUCUAUC | -0.746 |
| CGACAUC | -0.733 |
| CUACUUA | -0.659 |
| GAUGGUU | 2.01 |
| GAGGCCC | -0.334 |
| ACCGCAG | -0.623 |
| AACUAUA | -0.655 |
| GGACUGG | 2.16 |
| UGUUUGC | -0.34 |
| UUGACAG | 0.16 |
| AAGUGUU | 0.17 |
| CGUGAGA | 0.319 |
| CAUGGAG | 1.48 |
| CCUUCCU | -0.795 |
| GUAGCGU | 0.0528 |
| AGGAGAA | 2.11 |
| AUCCCGU | -0.714 |
| UUUCGAU | -0.655 |
| GAGCCUU | -0.818 |
| GCUGAAU | -0.0382 |
| UUGCCGC | -0.662 |
| UGACCAC | -0.49 |

| Sequence | RNAcompete 7-mer binding Z-score |
| --- | --- |
| ACGGCUU | -0.363 |
| AGUAAAG | 0.625 |
| GGCAUGG | 2.18 |
| AAGAGCU | -0.191 |
| UGGCCGA | -0.00246 |
| CCGCGCA | -0.405 |
| GUCGCGG | 0.923 |
| GGCACCC | 0.0203 |
| CAUGCCA | -0.707 |
| AAUAAUA | -0.409 |
| CCAAACA | -0.578 |
| GUUCGCA | -0.652 |
| CCACAUU | -0.834 |
| UGUUAAG | -0.0837 |
| CUCGGGC | -0.259 |
| CUUGGCG | -0.314 |
| CGUGGUC | 0.153 |
| CAAAGCA | -0.5 |
| ACAAGGC | 0.618 |
| CCUUCUC | -0.753 |
| UUAACCU | -0.798 |
| CUCCAAG | -0.613 |
| UAACCGA | -0.545 |

| Sequence | RNAcompete 7-mer binding Z-score |
| --- | --- |
| GACUAAC | -0.626 |
| CUUAAGG | 0.316 |
| UCAACGG | 0.238 |
| AUCCCGC | -0.662 |
| GUGGGCA | 3.06 |
| AUCUUAA | -0.782 |
| CUAGACG | -0.35 |
| UUUCAGG | -0.035 |
| UCUGAUU | -0.88 |
| ACUAUCG | -0.503 |
| CGUUGAC | -0.438 |
| UCUUCCC | -0.73 |
| GUUAUUA | -0.0577 |
| CAUGUAC | -0.422 |
| CUCGUGC | -0.789 |
| GCAGAAC | 0.202 |
| UGAAGGG | 3.82 |
| UGUUUAU | -0.47 |
| CGGCUAU | -0.571 |
| AACGCCG | -0.565 |
| CACGGUA | 0.231 |
| GCACGCA | -0.0447 |
